# Results reported in article PMC4336329 (PLoS ONE, 2015).
# About 14,000 (4.5%) of roughly 310,000 compounds showed an effect of 50% or more. Effects have a minus sign here. Some of the results follow.
# Target: human ether-à-go-go-related gene (hERG) potassium channel (human, UniProt Q12809)
# Test: primary screen, population patch clamp on CHO cells stably expressing hERG
# 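Note: peak tail current of the secondary pulse compared with the same well before compound.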
# Chain of human ether-à-go-go-related gene (hERG) potassium channel (Q12809 whole entry, looked up): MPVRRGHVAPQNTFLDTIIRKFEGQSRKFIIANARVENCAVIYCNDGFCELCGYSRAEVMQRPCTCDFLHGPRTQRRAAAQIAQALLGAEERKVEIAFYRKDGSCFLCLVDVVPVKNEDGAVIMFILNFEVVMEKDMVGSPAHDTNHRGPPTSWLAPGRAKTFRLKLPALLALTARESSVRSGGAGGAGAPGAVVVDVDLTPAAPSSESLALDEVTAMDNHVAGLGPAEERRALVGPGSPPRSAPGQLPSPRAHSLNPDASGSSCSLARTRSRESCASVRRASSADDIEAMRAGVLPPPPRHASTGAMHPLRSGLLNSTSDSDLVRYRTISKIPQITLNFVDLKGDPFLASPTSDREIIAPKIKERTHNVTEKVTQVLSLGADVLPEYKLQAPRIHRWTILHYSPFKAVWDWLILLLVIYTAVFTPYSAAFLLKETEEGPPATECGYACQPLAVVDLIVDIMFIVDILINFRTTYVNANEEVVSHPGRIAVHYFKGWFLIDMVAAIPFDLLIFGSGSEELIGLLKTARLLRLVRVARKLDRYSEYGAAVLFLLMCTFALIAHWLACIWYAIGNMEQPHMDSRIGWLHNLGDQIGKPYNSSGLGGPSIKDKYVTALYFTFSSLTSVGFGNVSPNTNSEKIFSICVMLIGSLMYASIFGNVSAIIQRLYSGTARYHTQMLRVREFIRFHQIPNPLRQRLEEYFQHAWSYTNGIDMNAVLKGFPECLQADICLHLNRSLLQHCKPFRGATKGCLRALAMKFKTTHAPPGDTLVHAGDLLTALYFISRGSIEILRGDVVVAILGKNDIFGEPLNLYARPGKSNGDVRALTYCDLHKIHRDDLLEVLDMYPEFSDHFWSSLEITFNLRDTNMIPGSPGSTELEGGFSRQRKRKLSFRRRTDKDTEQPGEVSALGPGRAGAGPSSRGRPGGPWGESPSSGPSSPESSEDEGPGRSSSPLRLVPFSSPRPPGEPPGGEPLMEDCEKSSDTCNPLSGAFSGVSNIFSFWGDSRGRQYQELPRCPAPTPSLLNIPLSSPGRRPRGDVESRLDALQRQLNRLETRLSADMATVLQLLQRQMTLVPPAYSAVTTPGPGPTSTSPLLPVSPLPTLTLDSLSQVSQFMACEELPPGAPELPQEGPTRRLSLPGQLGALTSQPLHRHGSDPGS
row,Structure (SMILES),"hERG current change (%, negative = inhibition) at 10uM [%]"
1,Cc1ccc(C(C(=O)NC2CCCCC2)N(C(=O)c2csnn2)C2CCCC2)o1 (stereo not drawn),-7.71
2,CCn1c(CCNC(=O)c2ccc(C)cc2)n[nH]c1=S,-9.11
3,Cc1cccc(/C=C2\Sc3ccc(C(=O)NCC4CCCO4)cc3N(C)C2=O)c1 (stereo not drawn),5.21
4,Cc1ccccc1OCCCC(=O)Nc1ccc(S(=O)(=O)Nc2onc(C)c2C)cc1,20.2
5,Cc1ccc2c(c1)c1nnc(SCC(=O)Nc3ccc(N(C)C)cc3)nc1n2CC(=O)O,6
6,CC(C)NC(=O)CSc1nnc(COc2ccccc2Cl)o1,9.76
7,CN1CCN(c2nc3c(c(=O)[nH]c(=O)n3C)n2CCSc2nnnn2-c2ccccc2)CC1,-17
8,O=C(CCS(=O)(=O)Cc1ccccc1F)NCc1ccccc1Cl,3.62
9,O=[N+]([O-])c1ccc(-c2ccn[nH]2)o1,14.8
10,O=C(Cn1cnc2c(nnn2-c2cccc(Cl)c2)c1=O)N1CCOCC1,-25.3
11,CCCOC(=O)/C(=C\C=C\c1ccco1)NC(=O)c1ccccc1,17.4
12,COc1cccc(-c2nc(Oc3cccc(C)c3C)c3ccccc3n2)c1O,17.6
13,Cc1nn(-c2ccccc2)c(C)c1/C=N/NC(=O)CSc1nnc(SCc2ccc(Cl)cc2)s1,4.89
14,NS(=O)(=O)c1cc(C(=O)OCC(=O)N2CCc3ccccc3C2)ccc1Cl,-14.8
15,Cc1cccc2c1NC(=O)/C2=C\C(=O)c1cccs1,1.97
16,CN1CCN(CCCNC(=S)Nc2ccc(F)c(Cl)c2)CC1,-21.4
17,Cc1ccc(S(=O)(=O)N2CCN(CCOc3c(Cl)cccc3Cl)CC2)cc1C,5.39
18,CC(=O)c1ccc(NC(=S)NNC(=O)NC2CCCCC2)cc1,8.27
19,CNC(=O)Nc1cccc(-c2ccnc(C)n2)c1,8.17
20,COc1cccc(CN2CCNC(=O)C2CC(=O)NCCCN2CCCC2=O)c1 (stereo not drawn),15.7
21,CCC(C)(C)NC(=O)C(C(C)C)N(CC1CCCO1)C(=O)CNS(=O)(=O)c1ccccc1 (stereo not drawn),-2.21
22,COc1cc(/C=C2/NC(=O)N(Cc3ccccc3F)C2=O)ccc1Oc1ccc([N+](=O)[O-])cn1,8.97

row,Structure (SMILES),"hERG current change (%, negative = inhibition) at 10uM [%]"
1,COc1ccccc1/C=C\C=N\n1c(-c2ccc(Cl)cc2Cl)n[nH]c1=S,25.5
2,O=[N+]([O-])c1ccc(Cc2cncc(O)c2)cc1,-17.3
3,O=C(NCc1cn2ccsc2n1)c1c(F)cccc1Cl,7.32
4,CC(C(=O)Nc1cccc([N+](=O)[O-])c1)[n+]1ccccc1.[Br-] (stereo not drawn),1.78
5,CCC(O)C1CCN(C(=O)c2ccc(OC3CCN(Cc4ccccn4)CC3)cc2)CC1 (stereo not drawn),21
6,Cc1ccc(C2N(c3ccc(F)cc3)C(=O)C3CCCN32)cc1 (stereo not drawn),5.75
7,COC(=O)c1ccccc1Oc1cc(C(F)(F)F)nc(-c2ccccn2)n1,17
8,CC(=O)c1cnn(-c2nc3c(C)cccc3s2)c1C,-5.76
9,COC(=O)c1ccc(CN(c2ccc(OC)cc2)S(=O)(=O)c2ccccc2)cc1,17.8
10,O=C(Cc1ccsc1-c1ccccc1)NO,5
11,COc1cc(-c2[nH]ncc2CN2CCSCC2)cc(OC)c1OC,-9.26
12,CCOc1cc(/C=N\NC(=O)Cn2nnc3ccccc32)ccc1O,-1.1
13,CCOC(=O)C1(CCc2ccccc2)CCN(CC(O)CO)CC1 (stereo not drawn),-40.3
14,CCC(C)NC(=O)c1ccc(CSCc2ccccc2Cl)o1 (stereo not drawn),-0.946
15,c1ccc(-c2nnc(SCc3nc4ccccc4[nH]3)o2)cc1,-27.4
16,Cc1ccc(SCC(=O)OCC(=O)N(CCC#N)c2ccccc2)cc1C,-10.4
17,O=C(NCc1ccco1)c1cc2n(n1)C(C(F)(F)F)CC(c1ccc(Br)cc1)N2 (stereo not drawn),-3.23
18,CCC(=O)NC(=S)Nc1ccc(NC(=O)COc2ccc(Cl)c(C)c2)cc1,3.25
19,COCCNC(=S)NN(c1ccccc1)c1ccccc1,-1.18
20,CCOC(=O)c1oc2cccc(O)c2c1CN(Cc1ccccc1)C(C)=O,-22.9
21,CC1=CC=CC2=NC(=O)CC(C)(C(=O)N(CC(=O)NC3CCCC3)Cc3ccc(Cl)cc3)N12 (stereo not drawn),22.3
22,CCCCOc1ccc(-c2ncc(Cl)cn2)cc1,-4.65

row,Structure (SMILES),"hERG current change (%, negative = inhibition) at 10uM [%]"
1,COc1ccc(CCNC(=O)C2CCN(c3nn4c(=O)cc(C)nc4s3)CC2)cc1OC,-4.87
2,CC(CN1CCCC1)OC(=O)C(c1ccccc1)c1ccccc1.Cl (stereo not drawn),-42.2
3,Cc1ccc2nc(C)c(C(=O)N/N=C/c3ccccc3[N+](=O)[O-])cc2c1,2.51
4,CCCn1c2ccccc2c2cn[nH]c(=O)c21,12
5,CCc1ccccc1NC(=O)CCNS(=O)(=O)c1ccc2c(c1)CCC(=O)N2,3.47
6,CCOC(=O)c1c(CSc2ccccc2)n(C)c2ccc(O)c(CN3CCOCC3)c12,-46.3
7,Cc1ccc(CN2C(=O)[C@@H]3Cc4c([nH]c5ccccc45)C(C)(C)N3C2=O)cc1,7.62
8,Cc1ccc(C(C(=O)NC(C)(C)C)N(Cc2ccccc2)C(=O)c2snc(C(N)=O)c2N)o1 (stereo not drawn),1.93
9,COc1ccc(N2C(=O)CC(N3CCN(S(=O)(=O)c4ccc(Cl)cc4)CC3)C2=O)cc1 (stereo not drawn),-16.7
10,S=C(NCc1ccncc1)Nc1ccc(Cl)c(Cl)c1,-13.1
11,Cc1ccc(C(=O)CSc2nnc(-c3ccccc3N)n2C)cc1C,1.51
12,CCOc1ccc(NS(=O)(=O)c2ccc(NC(=O)c3cccnc3)c(OC)c2)cc1,-8.26
13,CN(C)/N=C/c1ccc(OC(=O)c2cccc([N+](=O)[O-])c2)cc1,-0.174
14,Cc1ccc(CNC(=O)C2CCCN(S(C)(=O)=O)C2)cc1 (stereo not drawn),16.2
15,O=C(NCC(=O)N1CCCCC1)c1ccc(Cl)cc1Cl,5.57
16,COc1ccc(C2CC(c3ccccc3)=NN2c2ccc(C(N)=O)cc2)cc1 (stereo not drawn),14.3
17,CC(=O)C1=C(O)C(=O)N(c2ccc(Br)cc2)C1c1cccc(F)c1 (stereo not drawn),-4.01
18,O=C(N/N=C/c1cccs1)c1cnccn1,-1.91
19,COc1ccc(-c2c3c(=O)n(C)c(=O)n(C)c3cn2-c2cccc(OC)c2)cc1,16
20,CCC1C(C#N)=C(SC)NC2=C1C(=O)CC(C)(C)C2 (stereo not drawn),-6.36
21,O=C(COc1ccccc1)Nc1nnc(S(=O)(=O)Nc2ccccc2)s1,14.8
22,CCCc1nnc(NC(=O)CS(=O)(=O)c2ccccc2)s1,15

row,Structure (SMILES),"hERG current change (%, negative = inhibition) at 10uM [%]"
1,Cc1ccc(C)c(N2CCN(C(=O)CCS(=O)(=O)c3ccc4c(c3)CCN4C(=O)C3CC3)CC2)c1,-17.6
2,Cc1ccc(NC(=O)C2=CC=CN3CCS(=O)(=O)N=C23)cc1,-6.7
3,C=CCN1C(=O)OC2(CCCCC2)C1(C)O (stereo not drawn),3.67
4,CCOc1cc(/C=C(\C#N)C(=O)Nc2cccc(C(=O)O)c2)ccc1OCc1ccccc1Cl,11.9
5,C[C@]12CCC3C(CC[C@H]4CCCC[C@]34C)C1CC[C@@]2(O)CNCCO (stereo partly drawn),15.6
6,Cc1cc(C)c(S(=O)(=O)N2C=CC(C(F)(F)F)=NCC2)c(C)c1,17.7
7,O=C(Nc1nnc(CCc2ccccc2)s1)c1ccco1,2.12
8,CCn1c(SCC(=O)N/N=C/C=C/c2ccco2)nnc1-c1ccc(OC)cc1,-37.8
9,Cc1cc(C)c(C(=O)C(C)OC(=O)Cc2n[nH]c(=O)c3ccccc23)cc1C (stereo not drawn),4.39
10,CCN1CCCC1CNC(=O)C(=O)Nc1ccccc1 (stereo not drawn),-9.35
11,CC1CCCN(C(=O)Cc2cn(Cc3cccc(Cl)c3)c3ccccc23)C1 (stereo not drawn),-5.42
12,Cn1nc(C(=O)NNC(=O)C(CCC(N)=O)NS(=O)(=O)c2ccc(Cl)cc2)c2ccccc2c1=O (stereo not drawn),-0.0818
13,CCOC(=O)C1(Cc2cccc(OC)c2)CCN(Cc2cccc(OCC)c2O)CC1,-56.8
14,CCN(C(=O)c1cccc(NC(=O)c2ccccc2)c1)C1CCCCC1,-23.2
15,CCOCCn1ccc2c(OCC(=O)Nc3ccc(OC)c(OC)c3)cccc2c1=O,3.27
16,CN(NC(=O)c1ccco1)c1nc2ccccc2nc1C(F)(F)F,0.871
17,O=C(Nc1ccccc1)N1CCN(S(=O)(=O)c2ccccc2)CC1,12.4
18,C=CCN(c1ccccc1)S(=O)(=O)c1cccc(C(=O)NC2CCN(Cc3ccccc3)CC2)c1,-65.3
19,Cc1ccc2c(Cl)c(C(=O)Nc3nn[nH]n3)sc2c1,7.7
20,Cc1ccc(Cn2c(SCC(=O)NCC3CCCO3)nc3c2c(=O)n(C)c(=O)n3C)cc1 (stereo not drawn),-28.4
21,Cn1c(/C(C#N)=C/C2CC=CCC2)nc2ccccc21 (stereo not drawn),-30.6
